# Values joined by “and” are separate entries in the source; they are usually repeats but may differ in a detail not shown here. Identical values can stand only once. Hit rate of the full screen: of about 220,000 compounds, about 2,300 (1%) were called active. This list was built around the results that the source calls inconclusive (neither active nor inactive); the mix of calls is not that of the screen. Calls come from the whole dose curve; as a rule, active = well fitted inhibition curve with a large enough effect; inconclusive = small, poorly fitted or top-dose-only effect, or effect the other way; inactive = no such curve, though single readings can be large or run the other way. Potencies of inconclusive entries are doubtful fits and often do not repeat.
# Target: Neuropeptide S receptor (Homo sapiens) (UniProt Q6W5P4)
# Assay: qHTS Assay for Antagonists of the Neuropeptide S Receptor: cAMP Signal Transduction; note: nearly all actives have a fitted effect of over 50% in size
# Settings: CHO-NPSR cells, cAMP TR-FRET, antagonist mode; series mostly up to 38.3 µM
# Potency is the fitted concentration of half-maximal effect; tags give direction and shape of the fitted curve.
# UniProt Q6W5P4, sequence (Q6W5P4 whole entry, looked up): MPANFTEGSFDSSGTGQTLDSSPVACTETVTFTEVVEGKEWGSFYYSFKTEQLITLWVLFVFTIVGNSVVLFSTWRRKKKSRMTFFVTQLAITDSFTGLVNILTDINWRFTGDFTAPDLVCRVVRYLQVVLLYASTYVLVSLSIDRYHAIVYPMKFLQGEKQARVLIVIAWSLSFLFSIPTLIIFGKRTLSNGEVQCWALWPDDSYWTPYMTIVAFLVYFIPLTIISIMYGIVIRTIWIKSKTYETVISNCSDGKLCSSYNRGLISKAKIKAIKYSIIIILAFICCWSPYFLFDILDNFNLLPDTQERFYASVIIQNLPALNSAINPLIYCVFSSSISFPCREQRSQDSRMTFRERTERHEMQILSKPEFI
row,Compound,Potency
1,C#CCN1C(=O)C2C(C(=O)NC)C3C=CC2(O3)C1C(=O)NCc1ccc(OC)cc1 (stereo not drawn),"inconclusive: 3.16 µM [inhibitor, partial curve]"
2,Fc1ccc(Cl)cc1/C=N/n1cnnc1SCc1ccccc1,"inconclusive: 20 µM [inhibitor, single point]"
3,CSc1nc(-c2ccc(C)cc2)nc(N)c1C#N,"inconclusive: 25.1 µM [activator, single point]"
4,CC(C)Cc1nnc(NC(=O)CCC(=O)Nc2ccc3cn[nH]c3c2)s1,"inconclusive: 15.8 µM [activator, single point]"
5,Cc1onc(-c2c(F)cccc2Cl)c1C(=O)N1CCN(c2ncccn2)CC1,inactive
6,CC(C)OCCCN1CN(S(=O)(=O)c2cccs2)c2nc3ccccc3nc21,"inconclusive: 12.6 µM [inhibitor, single point]"
7,C(=N\Nc1nc(-c2ccccc2)cs1)/c1cccs1,"inconclusive: 15.8 µM [inhibitor, partial curve, poor fit]"
8,Cc1cc(Oc2ccccc2)nc(-c2ccccc2O)n1,"inconclusive: 20 µM [inhibitor, single point]"
9,N#CC1=C(SCC(=O)c2ccccc2)NC2=C(C(=O)CCC2)C1c1ccco1 (stereo not drawn),inactive
10,CCCCn1c(SCC(=O)Nc2cc(C)on2)nc2ccsc2c1=O,"inconclusive: 12.6 µM [activator, partial curve]"
11,COc1ccc(C2CC(c3ccc(Br)cc3)=NN2C(=O)c2cccnc2)cc1 (stereo not drawn),"inconclusive: 10 µM [inhibitor, single point]"
12,CCOC(=O)c1[nH]c2cc3c(cc2c1NC(=O)CN1CCC2(CC1)OCCO2)OCO3,"inconclusive: 2 µM [inhibitor, partial curve]"
13,Cc1onc(-c2c(F)cccc2Cl)c1C(=O)NCCCN1CCOCC1,inactive
14,Cc1cc(-c2nnc3n2N=C(c2ccc(-c4ccccc4)cc2)CS3)n[nH]1,"inconclusive: 10 µM [inhibitor, partial curve]"
15,O=C(Nc1ccccc1)OC1CC2CC1C1CCCC21 (stereo not drawn),"inconclusive: 10 µM [activator, single point]"
16,COc1ccc(C2C(C(C)=O)=C(O)C(=O)N2CCCn2ccnc2)cc1 (stereo not drawn),inactive
17,CCc1nnc(NS(=O)(=O)c2ccc(NC(=S)NC(=O)c3ccc(OC)cc3)cc2)s1,"inconclusive: 5.01 µM [inhibitor, partial curve]"
18,Cc1ccc(CNC(=O)CSc2c3c(nc4ccc(Cl)cc24)CCCC3)o1,"inconclusive: 25.1 µM [inhibitor, single point]"
19,C=CCCC(=O)Nc1nc(C)c(-c2csc(Nc3ccc(Cl)cc3)n2)s1,"inconclusive: 12.6 µM [inhibitor, partial curve]"
20,Cc1nn(C(=O)C(C)N2C(=O)c3ccccc3C2=O)c(C)c1Br (stereo not drawn),"inconclusive: 10 µM [inhibitor, partial curve]"
21,COc1ccc(OC)c(NC(=O)c2cc3ccccc3o2)c1,"inconclusive: 12.6 µM [inhibitor, partial curve, poor fit]"
22,S=C(NCc1ccco1)N/N=C/c1ccc(Cl)cc1,inactive

row,Compound,Potency
1,COc1cc(/C=N/Nc2nc(N3CCCC3)nc(N3CCCC3)n2)ccc1OCc1ccccc1F,"inconclusive: 12.6 µM [inhibitor, single point]"
2,CCOC(=O)C1CCN(S(=O)(=O)Cc2ccccc2)CC1,"inconclusive: 2.51 µM [inhibitor, partial curve]"
3,O=C(CSc1ncnc2c1oc1ccccc12)Nc1cccc(Cl)c1,"inconclusive: 25.1 µM [activator, single point]"
4,CCOc1ccc(N(CC(=O)NCC2CCCO2)S(=O)(=O)c2ccc(SC)cc2)cc1 (stereo not drawn),"inconclusive: 3.98 µM [inhibitor, single point]"
5,N/C(Cc1ccccc1)=N\OC(=O)c1cccc2ccccc12,inactive
6,CCCCc1nc2sc3c(SCCN(C)C)ncnc3c2c2c1CCC2,"inconclusive: 25.1 µM [activator, single point]"
7,CCOc1ccc(CN2CCN(Cc3nc4c(s3)CCCC4)CC2CCO)cc1 (stereo not drawn),inactive
8,COc1ccc(Cl)cc1C(=O)NC(=S)Nc1cc(-c2nc3ccccc3[nH]2)ccc1C,"inconclusive: 15.8 µM [inhibitor, single point]"
9,Cc1cccc(C(=O)NN2C(=O)C3C(c4ccccc4)C=CC(c4ccccc4)C3C2=O)c1 (stereo not drawn),"inconclusive: 12.6 µM [inhibitor, partial curve]"
10,N#CC1=C(S)N(c2ccccc2)C(c2ccc(-c3ccc(Cl)c(Cl)c3)o2)NC1=O (stereo not drawn),inactive
11,O=c1oc2cc(O)c(Cl)cc2c2ccccc12,active: 7.94 µM
12,CC(=O)c1cccc(CN2CCN(Cc3ccc(C)cc3)C(CCO)C2)c1 (stereo not drawn),inactive
13,CCC(=O)Oc1cccc(C(=O)Nc2ccc(-c3nnc(-c4ccco4)o3)cc2)c1,"inconclusive: 12.6 µM [inhibitor, single point]"
14,C[C@@H]1CC=C[C@H]2[C@H]1C(=O)N(Cc1ccccc1)[C@H]2c1ccc(-c2ccoc2)cc1F,"inconclusive: 10 µM [inhibitor, single point]"
15,O=C(CCc1ccc(S(=O)(=O)N2CCOCC2)cc1)OCc1nc2ccccc2s1,"inconclusive: 0.0032 µM [inhibitor, full curve, poor fit]"
16,O=C(O)c1ccc(CNc2ccccc2C(=O)O)cc1,inactive
17,CCOC(=O)c1c(-c2ccc(C)c(C)c2)csc1NC(=O)C1CC=CCC1C(=O)O (stereo not drawn),active: 10 µM
18,CCCCc1oc2ccccc2c1C(=O)c1cc(I)c(OCCN(CC)CC)c(I)c1,"inconclusive: 12.6 µM [inhibitor, single point] and inconclusive: 10 µM [inhibitor, single point]"
19,Cc1cc(=O)oc2cc(OCC(=O)Nc3nnc(C(C)C)s3)ccc12,"inconclusive: 25.1 µM [inhibitor, single point]"
20,N=C1c2ccccc2CN1c1ccc(N2CCOCC2)c(S(=O)(=O)Nc2ccc(Cl)cc2)c1,"inconclusive: 2 µM [activator, full curve]"
21,CC1=CC2=NC(=O)/C(=C/c3cccn3Cc3ccccc3)C(=N)N2O1,"inconclusive: 12.6 µM [inhibitor, single point]"
